Assay results taken from the supplement of paper PMC4967469.
pIC50: −log10 of the molar value. A lower IC50 marks a more sensitive line; a fit beyond the top or the lowest dose is shown as a bound at that dose. AUC sums up the same curve from the lowest dose to the 256-fold higher top dose; the more sensitive the line, the further below 1. For some assays here: A top dose marked as inferred is not printed in the source and was worked back from the curve model.

Legend:
Test in all cases: Viability of human cancer cell lines after 72 h of drug (GDSC screen)
[1] = compound: Cc1cnc(Nc2ccc(OCCN3CCCC3)cc2)nc1Nc1cccc(S(=O)(=O)NC(C)(C)C)c1 [TG101348]; settings: top dose 10.24 µM
Procedure: (§1)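 Human cancer cell lines in 384-well plates, medium with 10% serum, drug for 72 h over a 256-fold dose range (nine 2-fold or five 4-fold steps up to the top dose). Adherent lines were fixed and stained with the nucleic acid dye Syto60, suspension lines read with resazurin; signal relative to control wells, capped at 0 and 100%. One two-parameter sigmoid per drug and line, fitted in a mixed model over all curves with the slope shared within a line.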

[2] = compound: COC(=O)CNC(=O)C(=O)OC [Dimethyloxalylglycine]; settings: top dose 4000 µM; top dose inferred
Procedure: as §1

[3] = compound: COc1cccc2cc(-c3nc([C@H]4CC[C@H](C(=O)O)CC4)n4ncnc(N)c34)[nH]c12 [OSI-027]; settings: top dose 20 µM
Procedure: as §1

[4] = compound: O=C(c1ccc(C(=O)N2CCC(N3CCCC3)CC2)c(Nc2ccccc2)c1)N1CCC(N2CCCC2)CC1 [UNC1215]; settings: top dose 1 µM; top dose inferred
Procedure: as §1

[5] = compound: C=CCNC1=C2C[C@@H](C)C[C@H](OC)[C@H](O)[C@@H](C)/C=C(\C)[C@H](OC(N)=O)[C@@H](OC)/C=C\C=C(/C)C(=O)NC(=CC1=O)C2=O [17-AAG]; settings: top dose 1 µM
Procedure: as §1

[6] = compound: CCc1cc(-c2n[nH]c(C)c2-c2ccc3c(c2)OCCO3)c(O)cc1O [CCT018159]; settings: top dose 10 µM; top dose inferred
Procedure: as §1

[7] = compound: Cc1cnc(Nc2ccc(F)cc2Cl)nc1-c1c[nH]c(C(=O)N[C@H](CO)c2cccc(Cl)c2)c1 [VX-11e]; settings: top dose 5.12 µM; top dose inferred
Procedure: as §1

[8] = compound: CS(=O)(=O)c1ccc(C(=O)Nc2ccc(Cl)c(-c3ccccn3)c2)c(Cl)c1 [Vismodegib]; settings: top dose 10 µM; top dose inferred
Procedure: as §1

[9] = compound: CN(C)Cc1cccc(N=C(c2ccccc2)c2c(O)[nH]c3cc(C(=O)N(C)C)ccc23)c1 [BIX02189]; settings: top dose 20 µM; top dose inferred
Procedure: as §1

Cell Line	AUC [1]	pIC50 [1]	AUC [2]	pIC50 [2]	AUC [3]	pIC50 [3]	AUC [4]	pIC50 [4]	AUC [5]	pIC50 [5]	AUC [6]	pIC50 [6]	AUC [7]	pIC50 [7]	AUC [8]	pIC50 [8]	AUC [9]	pIC50 [9]
U-87-MG (glioma, adherent)	0.944	< 4.99	0.469	3.69	0.433	6.10	0.983	< 6.00	0.569	7.00	0.955	< 5.00	0.983	< 5.29	0.983	< 5.00	0.97	< 4.70
ML-2 (acute myeloid leukaemia, suspension)	0.616	5.89	0.436	3.77	0.125	7.01	0.986	< 6.00	0.901	< 6.00	0.972	< 5.00	0.72	5.91	0.981	< 5.00	0.831	4.97
SBC-1 (small cell lung carcinoma, suspension)	0.891	< 4.99	0.77	2.83	0.133	7.03	0.967	< 6.00	0.985	< 6.00	0.987	< 5.00	0.974	< 5.29	0.961	< 5.00	0.983	< 4.70
RH-41 (rhabdomyosarcoma, adherent)	0.81	5.36	0.871	2.56	0.458	6.01	0.991	< 6.00	0.827	6.32	0.971	< 5.00	0.992	< 5.29	0.975	< 5.00	0.992	< 4.70
NCI-H187 (small cell lung carcinoma, suspension)	0.822	5.18	0.611	3.29	0.786	5.03	0.985	< 6.00	0.987	< 6.00	0.978	< 5.00	0.982	< 5.29	0.983	< 5.00	0.962	< 4.70
NB17 (neuroblastoma, adherent)	0.781	5.31	0.525	3.53	0.519	5.85	0.98	< 6.00	0.857	< 6.00	0.903	< 5.00	0.956	< 5.29	0.98	< 5.00	0.958	< 4.70
C-33-A (cervix, adherent)	0.978	< 4.99	0.813	2.66	0.174	6.89	0.984	< 6.00	0.971	< 6.00			0.882	< 5.29	0.978	< 5.00	0.82	4.94
Hs746T (stomach, adherent)	0.783	5.22	0.837	< 2.40	0.13	> 7.11	0.977	< 6.00	0.852	< 6.00	0.887	< 5.00	0.956	< 5.29	0.967	< 5.00	0.892	< 4.70
NCI-H69 (small cell lung carcinoma, suspension)	0.841	5.08	0.887	< 2.40	0.45	6.05	0.98	< 6.00	0.984	< 6.00	0.954	< 5.00	0.981	< 5.29	0.986	< 5.00	0.984	< 4.70
OVCAR-5 (ovary, adherent)	0.813	5.16	0.532	3.51	0.816	4.85	0.967	< 6.00	0.524	7.13	0.854	< 5.00	0.92	< 5.29	0.982	< 5.00	0.955	< 4.70
Raji (Burkitt lymphoma, suspension)	0.947	< 4.99	0.638	3.23	0.698	5.37	0.988	< 6.00	0.984	< 6.00	0.962	< 5.00	0.984	< 5.29	0.939	< 5.00	0.942	< 4.70
REH (B-cell leukaemia, suspension)	0.598	5.93	0.518	3.55	0.137	7.02	0.978	< 6.00	0.983	< 6.00	0.936	< 5.00	0.95	< 5.29	0.97	< 5.00	0.825	4.94
5637 (bladder, adherent)	0.791	5.38	0.692	3.09	0.62	5.59	0.989	< 6.00	0.492	7.23	0.862	5.14	0.952	< 5.29	0.982	< 5.00	0.968	< 4.70
HT-3 (cervix, adherent)	0.877	< 4.99	0.665	3.14	0.905	< 4.70	0.985	< 6.00	0.763	6.44			0.971	< 5.29	0.987	< 5.00	0.972	< 4.70
